Results taken from the RNAGym collection of RNA variant scans (doi:10.7554/elife.90254).
The source gives no read counts; variants with many changes may rest on few reads.

B1: LINE1-mini (parent)
chain: GGCAGAGCUCAACACAGCGUGGCAAAGUGGCUGUGGCUAGACUGCC

Variants of: B1
Experiment: self-cleavage, relative activity (ratio to wild type); higher = more cleavage; in vitro, sequencing; the parent is a self-cleaving ribozyme

Variant	self-cleavage
A11U C18U U28A C45G	0.12
A11U A12U C13G A16G C31A G36C	0
A11U A12C A14C A25U G27U G36C	0.01
A11U C13A C18G G22U	0
A11U A12G C15A	0.03
A11G U28A C46G	0.02
A11U A16U C31U C42A	0
A11G U34A G44C	0.03
A11U A41C U43G	0
A11U A12U C15G G30U C42A	0
A11G U32G G35U A41C	0.01
A11U A24G G35U	0.02
A11U C13A A39C	0.03
A11G U20C C23A U34A	0.02
A11U C13G A14G	0.01
A11U A24C G33A C45U	0
A11U A16C G21C C23A G35A	0.01
A11U C18A C37G	0.02
A11U C23U A24G C31U	0.06
A11U A12G C23A	0.03
A11U C13U U43A	0.07
A11G U20C G21A A24G U32C C37U	0.02
A11U A16U U28A	0.01
A11U A16G G33C	0

Variant	self-cleavage
A11G U38A A39G	0.02
A11G U20G C42U	0.05
A11U A12C G21C C23A G27A	0.03
A11G G29A G36C	0.02
A11U C31A U34G U43C C46U	0
A11U A41G G44U	0
A11G G27A C46U	0.02
A11U C13U G19A	0.02
A11U C13U G19C	0
A11G G29A G40C	0.01
A11U C13A C15A C18G A26C C46A	0.02
A11U C15U C31A G40C C46U	0.01
A11U C13U C15U	0.02
A11U C23A A26G U34A C42G	0.01
A11U A16U C23A G30C G40C	0.01
A11U A24C A25U A41G G44U	0.01
A11U C18U U20G	0.04
A11U A12G G40A U43A	0.01
A11G G44A C45G	0
A11G G22A G33U G44C	0
A11U A12G C31A	0.02
A11U C18G C46G	0.05
A11G G22U C45U C46A	0.03
A11U A39G C46A	0.06

Variant	self-cleavage
A11G G30C G33A	0.02
A11U C18G G19C G21U G22U	0.1
A11U C23U U28G A39C	0
A11G G36C C37A	0.02
A11G G22C G27A	0.01
A11G G40U C45G	0.01
A11G U20A A26C	0.02
A11G U20G U32C G40C	0.01
A11G G22U A26G G36U	0.01
A11U A16U C37A G40U C45U	0
A11U C13A A16G C42U U43A C45U	0.01
A11U C23U G30U	0.05
A11U C31A G40U C42U U43A	0.03
A11G G22C C37G	0.03
A11U C23A A26U	0.06
A11G G22U G30A G33A G36A C45A	0.01
A11U A12G U34G	0
A11U C18G C37U A41C	0
A11G G29A U32A	0.02
A11U C23U U28G	0.11
A11U C18U C46A	0.09
A11G U20G C23A U32A	0
A11G U43C C46A	0
A11G G44C C46G	0

Variant	self-cleavage
A11U A14C G27U C31U G33C C37G	0
A11U A26C G27C G44A	0.05
A11U C13U C15G A41G	0.01
A11G G29U G35U A41G	0.01
A11U C15U C18A C31G	0
A11U C13G A14U C18G G19C U38A	0
A11U C18U A24C C31A G44U C45A	0.01
A11U C37A G40A	0.14
A11U C13U G36C	0.09
A11G G35U C37G	0.01
A11U C42A C45A	0.02
A11U C23U A39G	0.07
A11G G29U U32G	0.01
A11U C23A C31G	0.01
A11U A16C C46U	0.01
A11G G27U C42U	0.02
A11U A12U A14U A16G G21A U38G C42U	0
A11U A14U A24C G27A U38C C45A	0.01
A11U C13G C15A A24U	0
A11U A14U A25G	0
A11U C23U G35U	0.01
A11U C15G C37G	0
A11U A16C G21U G22A G30A G35C C46U	0.01
A11U C15U G19A	0.03

Variant	self-cleavage
A11U C23G G27C G40C	0
A11G G33C U34G U43A	0.05
A11U C18U A24U	0.05
A11U A12U G17U G33A C42U G44A	0
A11G G22C U34C C37U	0.01
A11G G35U G40C	0.04
A11G U20C G21C	0.03
A11U C15A U20C A24U G27U	0.01
A11U A14C G21A A24C G27C G33A	0.01
A11U A26G U34C	0.02
A11U C18G A25U	0.04
A11U A12G A41G	0.02
A11U A16U G36C	0.02
A11U C18U U20G U34G	0
A11U C15U U43C	0.02
A11G G22C G30C C37A	0.01
A11U C37A G44A	0.01
A11U A25U G35U C42A	0.03
A11G G36U U43A	0.01
A11U A16U C18U A39G	0.01
A11U A12G G21A C23G	0
A11G U28C G40C	0.01
A11U C13U G40C A41G	0.02
A11G G29A A41U	0.02

Variant	self-cleavage
A11U C42U C46U	0
A11U C18G G29U	0.06
A11U C15G U28G G40U	0.01
A11U C42A U43A C45U C46U	0
A11U C13U C23U C42A C45G	0.02
A11U A16G G29A	0.02
A11G G33A U43G	0
A11U A14G U32A	0.02
A11U C23A A26G G30A	0.53
A11U C23U A24C G29U	0.02
A11U C18G A26G	0.09
A11U A26U G29U	0.14
A11U A16C G21C G29A G44A	0.02
A11U A16G U32G	0.02
A11U C15A U34C G35A	0.01
A11U C13A G30U U34A	0.04
A11U A14G C18G G19U C31G C45G	0.02
A11U A16U C31G U38C U43A G44C	0.02
A11G G29U G36C	0
A11U C23A G44C C46U	0.02
A11U C23G G30U C42U	0.01
A11U C15G G35U C42U C46G	0
A11U C31G G33A U43C	0.01
A11U C15A A26C C31G	0.01

Variant	self-cleavage
A11U A25U C46G	0.21
A11U A12C G17U	0.01
A11U A14G C15G	0.02
A11G U20C A39C A41G	0
A11U A24C C31A G36C C42U	0.02
A11U C31A U32A U34G C42U	0.01
A11G U20C A39U G40C	0.01
A11U A16U G29A	0.05
A11U A25C A26G U28A G44A	0.02
A11U A16U G21C	0.05
A11U C15G G21A A26U G29C G35A C46G	0.01
A11U C18U U20C U34G U38C U43G	0
A11U A26U G30U G33A U34C C46U	0.03
A11G G27A U34A C46U	0.01
A11U C15U C31A C42U	0
A11U C37G G40C	0.02
A11U A16U A25C G29U G40U	0.01
A11U A26U U34G	0.04
A11G G27C U34G	0.01
A11U A25G G27U C45U	0
A11G G22C A24C U28G	0
A11U C13G A25C G27A	0
A11U A14U C42A	0.01
